Assay results published in US11440970B2, “Nicotine-binding antibodies” (priority 2017, dated 2022).

Legend:
[1] = Nicotine binding affinity by Surface Plasmon Resonance Biosensor
Experimental: The KD values reported below were determined by Surface Plasmon Resonance Biosensor. Other methodology for determining binding affinity also can be used, such as equilibrium dialysis.

[2] = Binding affinity for R-(+)-nicotine
[3] = Single dose nicotine pharmacokinetic study in antibody pre-treated rats; format: in vivo; settings: rats pre-treated with 20 mg/kg antibody; 0.03 mg/kg nicotine i.v.; 3 minutes later; vs control rats
[4] = Single dose nicotine dose-response study in antibody pre-treated rats; format: in vivo; settings: for serum nicotine level / brain nicotine level: 3 min; for serum nicotine level: control 21 ng/mL; for brain nicotine level: control 139 ng/g
Experimental: Rats were used since their nicotine metabolism is generally similar to humans in rate and range of metabolites. Rats were pre-treated with 10, 20, or 40 mg/kg of 12F5 IgG4 or 8D1 IgG4. […] Three minutes later, the animals were sacrificed and the amount of nicotine in their serum and brains was quantified.
Serum levels of antibody were measured using ELISA and rats that had less than 5 μg/mL serum antibody level (due to incomplete administration) were excluded from the analyses.

[5] = Accelerated stability study, Size Exclusion Chromatography; format: physicochemical; settings: for Main Peak Area: PBS, approximately 10 mg/ml
Experimental: To determine the relative stability of exemplary nicotine-binding antibodies, antibodies 8D1-IgG4 and 12F5 IgG4 were formulated in phosphate buffer saline (PBS) at a concentration of approximately 10 mg/ml and incubated at 40° C. or 5° C.

[6] = In vivo study of acute heavy smoking, 5 repeated nicotine doses; parameters: species or system rats; settings: for brain nicotine levels reduced by, compared to control IgG: after the fifth nicotine dose; for total serum nicotine level / brain nicotine level: following the 5th nicotine dose; for total serum nicotine level: control 60 ng/mL; for brain nicotine level: control 298 ng/g
[7] = Nicotine self-administration (NSA) in rats; format: in vivo
Experimental: After NSA stabilized at this unit dose, rats received twice-weekly i.v. infusions of 160 mg/kg 8D1-IgG4 (N=7) or 160 mg/kg Gammagard (control mAb, N=7) 30 minutes prior to the session while rats continued NSA at the 0.015 mg/kg dose for 10 consecutive sessions. […] Although the dose of 8D1-IgG4 was high, the effective dose for smoking cessation in humans will likely be much lower because people will be motivated to quit. […] Rollema, H. et al., Neuropharmacology, 52: 985-994 (2007).

[8] = rats; i.v.; non-compartmental analysis
Experimental: (§1) The pharmacokinetics of 8D1-IgG4 were tested in rats following a single dose (20 mg/kg; FIG. 6) and repeated doses (40 mg/kg; FIG. 7) of 8D1-IgG4 dosed weekly for 4 weeks in rats (N=6). Residual mAb concentrations were measured at various time points after i.v. dosing. […] Rodent PK assays of mAb's are not always predictive of PK in humans but are often used as a measure of “in vivo fitness” in the lead selection process.

[9] = Unbound nicotine by ultrafiltration at end of pharmacokinetic study; format: in vivo, rats; settings: end of PK study, 0.03 mg/kg i.v. nicotine, 3 minutes
Experimental: as §1

[10] = Non-GLP 4-week repeated high-dose toxicology study; format: in vivo, rats
Experimental: 8D1-IgG4 was dosed i.v. once weekly at 200 mg/kg.
Assessment of toxicity was based on mortality, clinical observations, and body weight during the course of the 28-day study, and at the end of study organ weights, gross anatomic pathology, hematology, serum clinical chemistry, and coagulation was performed. Histopathology of selected tissues (heart, liver, lung, kidney, spleen, skeletal muscle, brain, colon, stomach, ovary, and testis) is pending. Tissues were fixed immediately in formalin, and processed for embedding in paraffin, staining with H&E, and review by a veterinary pathologist.

[11] = Cross reactivity (IC50 ratio), S-Nicotine; format: binding
Text: (§2) Of these, cotinine, nicotinamide, B-nicotinamide adenine dinucleotide, and nornicotine are nicotine-related molecules; bupropion, varenicline and cytisine are smoking-cessation drugs, and acetylcholine chloride, 3-hydroxytyramine (dopamine), serotonin, and norepinephrine are neurotransmitters. A cross-reactivity of less than 0.1%, less than 0.05%, less than 0.01%, or less than 0.005%, or less than 0.001%, or less than 0.0005%, or less than 0.0001% is considered to be substantially not cross-reactive.

[12] = Cross reactivity (IC50 ratio), Cotinine; format: binding; parameters: key: NCR = no cross reactivity detected
Text: as §2

[13] = Cross reactivity (IC50 ratio), Acetylcholine Chloride; format: binding; parameters: key: NCR = no cross reactivity detected
Text: as §2

[14] = Cross reactivity (IC50 ratio), Nicotinamide; format: binding; parameters: key: NCR = no cross reactivity detected
Text: as §2

[15] = Cross reactivity (IC50 ratio), Dopamine HCl; format: binding; settings: 3-Hydroxytyramine HCl (Dopamine HCl)
Text: as §2

[16] = Cross reactivity (IC50 ratio), Serotonin Hydrochloride; format: binding; parameters: key: NCR = no cross reactivity detected
Text: as §2

[17] = Cross reactivity (IC50 ratio), Norepinephrine; format: binding; settings: (+/−)-Norepinephrine (+)-Bitartrate Salt
Text: as §2

[18] = Cross reactivity (IC50 ratio), Nornicotine; format: binding; parameters: key: NCR = no cross reactivity detected
Text: as §2

[19] = Cross reactivity (IC50 ratio), Bupropion; format: binding; parameters: key: NCR = no cross reactivity detected
Text: as §2

[20] = Cross reactivity (IC50 ratio), Cytisine; format: binding
Text: as §2

[21] = Cross reactivity (IC50 ratio), Varenicline tartrate; format: binding
Text: as §2

[22] = Cross reactivity (IC50 ratio), B-Nicotinamide Adenine Dinucleotide; format: binding
Text: as §2

[23] = S-Nicotine, 25° C., Surface Plasmon Resonance Biosensor, read-out: KD (nM) (S-Nicotine; 25° C.)
[24] = 10 mg/kg antibody, 0.03 mg/kg nicotine i.v.
[25] = 20 mg/kg antibody, 0.03 mg/kg nicotine i.v.
[26] = 40 mg/kg antibody, 0.03 mg/kg nicotine i.v.
[27] = 200 mg/kg i.v. once weekly, 4 weeks, rats

B1: 8D1-IgG4: IgG4 (S228P) nicotine-binding antibody, heavy chain SEQ ID NO: 27, light chain SEQ ID NO: 28 (antibody)
heavy: QVRLQESGPGLVKPSGTLSLTCAVSGGSIYSSNWWTWVRQPPGKGLEWVGEIHIRGTTYYNPSLNSRVTISLDKSNNQVSLRLTSVTAADSAVYYCVSQEVGGPDLWGQGTLVTVSSASTKGPSVFPLAPCSRSTSESTAALGCLVKDYFPEPVTVSWNSGALTSGVHTFPAVLQSSGLYSLSSVVTVPSSSLGTKTYTCNVDHKPSNTKVDKRV[here human IgG4 Fc with S228P (EU numbers) without letters]
light: NFMLTQPHSVSESPGKTVTISCTRSGGSIATYYVQWYQQRPGSAPTNVIYKYDQRPSGVPDRFSGSIDSSSNSASLTISGLKTEDEADYYCQSYDNNIQVFGGGTKLTVLGQPKAAPSVTLFPPSSEELQANKATLVCLISDFYPGAVTVAWKADGSPVKAGVETTKPSKQSNNKYAASSYLSLTPEQWKSHRSYSCQVTHEGSTVEKTVAPTECS
Kd [1, 23]: 5 nM | Kd ([2]; R-(+)-nicotine): 92 nM | enantiomer binding preference ([2]; S-(−)-nicotine versus R-(+)-nicotine): preferentially bind to S-(−)-nicotine | decrease in the level of nicotine localized in the brain [3]: 80% | brain nicotine level, % of the control level ([4]; 10 mg/kg antibody): 49% | serum nicotine level, fold of the control level ([4]; 10 mg/kg antibody): 11 fold | serum nicotine level [4, 24]: 226 ng/mL | brain nicotine level [4, 24]: 68 ng/g | brain nicotine level, % of the control level ([4]; 20 mg/kg antibody): 16% | serum nicotine level, fold of the control level ([4]; 20 mg/kg antibody): 17 fold | serum nicotine level [4, 25]: 351 ng/mL | brain nicotine level [4, 25]: 22 ng/g | brain nicotine level, % of the control level ([4]; 40 mg/kg antibody): 3% | serum nicotine level, fold of the control level ([4]; 40 mg/kg antibody): 22 fold | serum nicotine level [4, 26]: 470 ng/mL | brain nicotine level [4, 26]: 4 ng/g | decrease of the amount of nicotine localized in the brain ([4]; 40 mg/kg antibody, 0.03 mg/kg nicotine i.v., rats): more than 95% | % Aggregates ([5]; 2 week, 5° C.): 0.98% | % Fragments ([5]; 2 week, 5° C.): 0% | Main Peak Area ([5]; 2 week, 5° C.): 500,715 | % Aggregates ([5]; 2 week, 40° C.): 2.9% | % Fragments ([5]; 2 week, 40° C.): 0% | Main Peak Area ([5]; 2 week, 40° C.): 523,434 | % Aggregates ([5]; 4 week, 5° C.): 0% | % Fragments ([5]; 4 week, 5° C.): 0% | Main Peak Area ([5]; 4 week, 5° C.): 476,309 | % Aggregates ([5]; 4 week, 40° C.): 4.0% | % Fragments ([5]; 4 week, 40° C.): 0% | Main Peak Area ([5]; 4 week, 40° C.): 586,613 | brain nicotine level, % of the control level ([6]; 40 mg/kg antibody): 49% | total serum nicotine level, fold of the control level ([6]; 40 mg/kg antibody): 19 fold | brain nicotine levels reduced by, compared to control IgG ([6]; 40 mg/kg antibody): 51% | total serum nicotine level ([6]; 40 mg/kg antibody): 1130 ng/mL | brain nicotine level ([6]; 40 mg/kg antibody): 146 ng/g | brain nicotine level, % of the control level ([6]; 80 mg/kg antibody): 8% | total serum nicotine level, fold of the control level ([6]; 80 mg/kg antibody): 33 fold | brain nicotine levels reduced by, compared to control IgG ([6]; 80 mg/kg antibody): more than 90% | total serum nicotine level ([6]; 80 mg/kg antibody): 1987 ng/mL | brain nicotine level ([6]; 80 mg/kg antibody): 23 ng/g | free nicotine ([6]; of total serum nicotine, 40 and 80 mg/kg antibody, refers to Example 8): < 2% | brain nicotine levels after 5 nicotine doses (FIG. 4B) ([6]; rats pretreated with antibody): decrease | serum nicotine levels after 5 nicotine doses (FIG. 4A) ([6]; rats pretreated with antibody): increase | nicotine self-administration (NSA) compared to baseline and to control rats ([7]; 160 mg/kg i.v. twice-weekly, unit nicotine doses 0.015 and 0.0075 mg/kg): significant decrease | mean number of self-administered infusions at Baseline relative to during antibody treatment (FIG. 5) ([7]; each unit nicotine dose): significantly higher | clearance [8]: 6 mL/h/kg | elimination phase half-life [8]: 131 h | steady-state VD [8]: 0.0792 L/kg | unbound nicotine [9]: < 2% | tolerability ([10]; 200 mg/kg i.v. once weekly, 4 weeks, with and without nicotine, rats): well-tolerated with no obvious pathology | daily clinical observations [10, 27]: no observable behavioral changes or modifications in feeding or grooming | mortality [10, 27]: no mortality | serum clinical chemistry and plasma coagulation ([10]; 23 analytes, between treatment groups): did not find any notable changes | gross pathology at necropsy ([10]; end of study): No gross pathological findings | hematological parameters (complete blood count) ([10]; end of study): no significant changes or trends | organ weights ([10]; liver, lung, spleen, heart, kidneys, testis or ovaries): no statistically significant changes | body weight ([10]; monitored twice weekly, between treatment groups): no significant differences

B2: 8D1: IgG1 nicotine-binding antibody, heavy chain SEQ ID NO: 1, light chain SEQ ID NO: 2 (antibody)
heavy: QVRLQESGPGLVKPSGTLSLTCAVSGGSIYSSNWWTWVRQPPGKGLEWVGEIHIRGTTYYNPSLNSRVTISLDKSNNQVSLRLTSVTAADSAVYYCVSQEVGGPDLWGQGTLVTVSS[here human IgG1 constant region without letters]
light: NFMLTQPHSVSESPGKTVTISCTRSGGSIATYYVQWYQQRPGSAPTNVIYKYDQRPSGVPDRFSGSIDSSSNSASLTISGLKTEDEADYYCQSYDNNIQVFGGGTKLTVLGQPKAAPSVTLFPPSSEELQANKATLVCLISDFYPGAVTVAWKADGSPVKAGVETTKPSKQSNNKYAASSYLSLTPEQWKSHRSYSCQVTHEGSTVEKTVAPTECS
Kd [1, 23]: 5 nM | Kd ([1]; as printed in Table 4, read-out: S-Nicotine affinity KD): 5 nM | percent of cross reactivity (IC50, Nicotine/IC50, Compound × 100%) [11]: 100% | percent of cross reactivity (IC50, Nicotine/IC50, Compound × 100%) [12]: NCR* | percent of cross reactivity (IC50, Nicotine/IC50, Compound × 100%) [13]: NCR | percent of cross reactivity (IC50, Nicotine/IC50, Compound × 100%) [14]: NCR | percent of cross reactivity (IC50, Nicotine/IC50, Compound × 100%) [15]: 0.0003% | percent of cross reactivity (IC50, Nicotine/IC50, Compound × 100%) [16]: NCR | percent of cross reactivity (IC50, Nicotine/IC50, Compound × 100%) [17]: 0.0005% | percent of cross reactivity (IC50, Nicotine/IC50, Compound × 100%) [18]: NCR | percent of cross reactivity (IC50, Nicotine/IC50, Compound × 100%) [19]: NCR | percent of cross reactivity (IC50, Nicotine/IC50, Compound × 100%) [20]: 0.0001% | percent of cross reactivity (IC50, Nicotine/IC50, Compound × 100%) [21]: 0.0002% | percent of cross reactivity (IC50, Nicotine/IC50, Compound × 100%) [22]: 0.0002%
